# The whole screen tested about 350,000 compounds, of which about 9,900 (2.8%) were called active. The shares of active, inactive and inconclusive entries below differ from those in the screen. Calls come from the whole dose curve; as a rule, active = well fitted activation curve with a large enough effect; inconclusive = small, poorly fitted or top-dose-only effect; inactive = no such curve, though single readings can be large or run the other way. Potencies of inconclusive entries are left out as doubtful fits.
# Experiment: A quantitative high throughput screen for small molecules that induce DNA re-replication in MCF 10a normal breast cells. Note: nearly all actives have a fitted effect of over 50% in size.
# Details: MCF 10A DNA re-replication, Hoechst nuclear intensity, 48 h; series mostly up to 46.1 µM
# Potency is the fitted concentration of half-maximal effect; tags give direction and shape of the fitted curve.
row,SMILES,Potency
1,O=C(O)CSCC(=O)NCc1c(Cl)cccc1Oc1ccccc1,inactive
2,Cc1ccc(S(=O)(=O)N(CC(=O)NCc2ccncc2)C2CCCCC2)cc1,"inconclusive [activator, single point]"
3,CCC1CN(S(=O)(=O)c2cc(-c3cc(C)no3)ccc2OC)c2cc(C)ccc2O1 (configuration not stated),inactive
4,CCN1C(=NCC2CC2)N[C@@H](c2cccc(C(F)(F)F)c2)C(C(=O)OC)=C1C,inactive
5,COc1cc2cc(CCOC(=O)N3CCCCC3)oc(=O)c2cc1OC,inactive
6,COc1ccc(-c2csc(N(CCCN(C)C)C(=O)c3ccccc3Cl)n2)cc1,"inconclusive [activator, single point]"
7,Cn1c(C(=O)OCC(=O)NCc2ccc(F)cc2)cc2occc21,active: 2.91 µM
8,CCOC(=O)C1(CC2CC2)CCN(C(=O)c2ocnc2C)CC1,inactive
9,O=C(COC(=O)CSc1ccccc1)Nc1ccc(F)cc1F,"inconclusive [activator, single point]"
10,O=C(COC(=O)c1n[nH]c2ccccc12)NC(=O)NC12CC3CC(CC(C3)C1)C2,"inconclusive [activator, partial curve]"
11,CC(=O)C1=C(O)CC(c2ccccc2)CC1=NCCc1c(C)[nH]c2ccc(C)cc12 (configuration not stated),"inconclusive [activator, partial curve, poor fit]"
12,Oc1ccc(Cl)c2cccnc12,"inconclusive [activator, full curve, poor fit]"
13,Cc1ccc(-c2csc(N(CCO)CCCn3c(C(F)(F)F)nc4ccccc43)n2)cc1,"inconclusive [activator, partial curve, poor fit]"
14,CC(=O)c1ccc(NC(=O)c2noc(C)c2[N+](=O)[O-])cc1,"inconclusive [activator, single point]"
15,COc1ccc(C(=O)Nc2cccc(C(C)=O)c2)c(OC)c1OC,inactive
16,CC(=O)c1sc(NC(=O)CCN2C(=O)c3ccccc3C2=O)nc1C,inactive
17,CC(=O)Nc1ccc(Nc2cc(-c3ccccc3)nc3ncnn23)cc1,inactive
18,COc1ccc(C(=O)CSc2nnn(-c3cccc(NC(C)=O)c3)n2)cc1,"inconclusive [activator, partial curve, poor fit]"
19,COc1ccc(CN2CCNC(=O)C2CC(=O)NCc2csc(C)n2)c(F)c1 (configuration not stated),inactive
20,O=C(/C=C/c1ccc(Cl)cc1)NC(=S)Nc1ccc(N2CCOCC2)c(Cl)c1,"inconclusive [activator, partial curve]"
21,COc1cc(NC(=O)c2sc3ncn(CC(=O)N4CCCCC4)c(=O)c3c2C)cc(OC)c1OC,inactive
22,Cc1ccc(S(=O)(=O)N(C)C)cc1NC(=O)COC(=O)CSc1ccccc1,inactive
23,Cc1cc(C)n(S(=O)(=O)/C=C/c2ccccc2)n1,active: 16.4 µM
24,CN(Cc1ccc(Br)cc1)CC(O)COc1cccc(Br)c1 (configuration not stated),"inconclusive [activator, partial curve, poor fit]"

row,SMILES,Potency
1,Cc1cc(Sc2nc(N)ncc2[N+](=O)[O-])ncn1,"inconclusive [activator, single point]"
2,Cc1ccc(C)c(N2CCN(CC3CCCCC3)CC2)c1,inactive
3,COc1ccc(C)cc1NC(=O)C1C2C=CC(C2)C1C(=O)O (configuration not stated),inactive
4,O=S(=O)(c1ccc(Cl)cc1)N1CCN(Cc2c[nH]c3ccccc23)CC1,inactive
5,O=C(NCc1ccccc1Br)c1ccncc1,inactive
6,O=C(CCl)Nc1c(C(=O)Nc2ccc3c(c2)OCCO3)oc2ccccc12,active: 7.31 µM
7,COc1ccc(-c2cc(C3CCN(Cc4ccc([N+](=O)[O-])cc4)CC3)[nH]n2)cc1,inactive
8,CCCCCCCNC(=O)C1(CC2CC(c3ccc(Cl)cc3)=NO2)CCN(C(=O)OC(C)(C)C)CC1 (configuration not stated),"inconclusive [activator, partial curve, poor fit]"
9,O=C(Nc1nnc(-c2ccccn2)o1)c1ccc(Br)cc1,inactive
10,CC(=O)c1cnc2c(-c3ccccc3)c(C(F)(F)F)nn2c1C,"inconclusive [activator, partial curve]"
11,COc1ccc2c(=O)c3c(=O)n(Cc4ccco4)c(-c4cc(OC)c(OC)c(OC)c4)nc3oc2c1,"inconclusive [activator, partial curve, poor fit]"
12,CCOc1ccc(-c2nnc3sc(-c4ccccc4OC)nn23)cc1,inactive
13,O=C(O)CC(NC(=O)C(c1ccccc1)c1ccccc1)c1ccc(F)cc1 (configuration not stated),"inconclusive [activator, single point]"
14,COc1ccc(-n2c(SC(C)C(=O)Nc3ncc(Cl)cc3Cl)nc3ccccc32)cc1 (configuration not stated),"inconclusive [activator, full curve, poor fit]"
15,CCN(CC)c1ccc(Nc2cc3n(c(=O)n2)CCc2cc(OC)c(OC)cc2-3)cc1,"inconclusive [activator, partial curve, poor fit]"
16,COC(=O)CNC(=O)C1CCCN1C(=O)CNC(=O)OCc1ccccc1 (configuration not stated),inactive
17,COc1ccc(S(=O)(=O)N(C)c2ccc(C(=O)N3CCOCC3)cc2)cc1OC,"inconclusive [activator, single point]"
18,CCOc1ccc(/C=N/NC(=O)c2[nH]c3ccc(C)cc3c2C)cc1,"inconclusive [activator, single point]"
19,O=C(/C=C/c1ccccn1)c1ccc(Br)cc1O,"inconclusive [activator, single point]"
20,COc1ccc(Br)cc1CNC(=O)CN1C(=O)C(c2ccccc2)Oc2cccnc21 (configuration not stated),"inconclusive [activator, partial curve, poor fit]"
21,COc1ccc(C(NC(=O)/C=C/c2ccco2)c2ccc(OC)c(OC)c2)cc1 (configuration not stated),inactive
22,COC(=O)CNC(=S)NC(=O)c1ccc(C(C)(C)C)cc1,"inconclusive [activator, single point]"
23,COc1ccc(NC(=O)C2CCN(c3nc(C)nc4c3CCC4)CC2)cc1,inactive
